# The list shows a part of the results.
# B1: VLRB.aGPA.23-GCN4-biotin (Petromyzon marinus) (protein)
# chain: ACPSQCSCSGTEVNCAGKSLASVPAGIPTTTRVLYLNSNQITKLEPGVFDRLANLRELHLWGNQLVSLPPGVFDNLANLEKLWLNSNQLTSLPAGLFDRLVNLEHLGLCCMKLTELPSGAFDKLTRLKQLGLDQNQLKSIPDGAFARLPSLTHVWLHTNPWDCQCTDILYLSGWVAQHSSIVGEGWPWRHSPDSAKCSGTNTPVRAVTEASTSPSKCP
# Tests used:
# Assay in all cases: glycan array binding signal (z-score within array); higher = stronger binding
# Conditions in all cases: glycan notation: IUPAC condensed, linker removed
# [1] = biological target: Gal(b1-4)GlcNAc(b1-3)Gal(b1-4)GlcNAc(b1-2)Man(a1-3)[Gal(b1-4)GlcNAc(b1-3)Gal(b1-4)GlcNAc(b1-2)Man(a1-6)]Man(b1-4)GlcNAc(b1-4)[Fuc(a1-6)]GlcNAc
# Procedure, shortened: (§1)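 Glycan array binding is given as a within-array Z-score, which can be read as non-binding when negative. The arrays, 3228 of them, came from the Consortium for Functional Glycomics database and were retained only where the protein sequence was available. Z-scores were averaged across arrays of the same protein sequence at different concentrations or buffers and across linkers.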
# [2] = biological target: Gal(b1-4)GlcNAc(b1-3)Gal(b1-4)GlcNAc(b1-2)[Gal(b1-4)GlcNAc(b1-3)Gal(b1-4)GlcNAc(b1-6)]Man(a1-6)[Gal(b1-4)GlcNAc(b1-3)Gal(b1-4)GlcNAc(b1-2)Man(a1-3)]Man(b1-4)GlcNAc(b1-4)GlcNAc
# Procedure, shortened: as §1
# [3] = biological target: Gal(b1-4)GlcNAc(b1-3)Gal(b1-4)GlcNAc(b1-2)[Gal(b1-4)GlcNAc(b1-3)Gal(b1-4)GlcNAc(b1-6)]Man(a1-6)[Gal(b1-4)GlcNAc(b1-3)Gal(b1-4)GlcNAc(b1-2)Man(a1-3)]Man(b1-4)GlcNAc(b1-4)[Fuc(a1-6)]GlcNAc
# Procedure, shortened: as §1
# [4] = biological target: Gal(b1-4)GlcNAc(b1-3)Gal(b1-4)GlcNAc(b1-3)Gal(b1-4)GlcNAc
# Procedure, shortened: as §1
# [5] = biological target: Gal(b1-4)GlcNAc(b1-3)Gal(b1-4)GlcNAc(b1-3)Gal(b1-4)GlcNAc(b1-2)Man(a1-3)[Gal(b1-4)GlcNAc(b1-3)Gal(b1-4)GlcNAc(b1-3)Gal(b1-4)GlcNAc(b1-2)Man(a1-6)]Man(b1-4)GlcNAc(b1-4)GlcNAc
# Procedure, shortened: as §1
# [6] = biological target: Gal(b1-4)GlcNAc(b1-3)Gal(b1-4)GlcNAc(b1-3)Gal(b1-4)GlcNAc(b1-2)Man(a1-3)[Gal(b1-4)GlcNAc(b1-3)Gal(b1-4)GlcNAc(b1-3)Gal(b1-4)GlcNAc(b1-2)Man(a1-6)]Man(b1-4)GlcNAc(b1-4)[Fuc(a1-6)]GlcNAc
# Procedure, shortened: as §1
# [7] = biological target: Gal(b1-4)GlcNAc(b1-3)Gal(b1-4)GlcNAc(b1-3)Gal(b1-4)GlcNAc(b1-2)[Gal(b1-4)GlcNAc(b1-3)Gal(b1-4)GlcNAc(b1-3)Gal(b1-4)GlcNAc(b1-6)]Man(a1-6)[Gal(b1-4)GlcNAc(b1-3)Gal(b1-4)GlcNAc(b1-3)Gal(b1-4)GlcNAc(b1-2)Man(a1-3)]Man(b1-4)GlcNAc(b1-4)[Fuc(a1-6)]GlcNAc
# Procedure, shortened: as §1
# [8] = biological target: Gal(b1-4)GlcNAc(b1-3)Gal(b1-4)GlcNAc(b1-3)Gal(b1-4)GlcNAc(b1-3)Gal(b1-4)GlcNAc(b1-2)Man(a1-3)[Gal(b1-4)GlcNAc(b1-3)Gal(b1-4)GlcNAc(b1-3)Gal(b1-4)GlcNAc(b1-3)Gal(b1-4)GlcNAc(b1-2)Man(a1-6)]Man(b1-4)GlcNAc(b1-4)GlcNAc
# Procedure, shortened: as §1
# [9] = biological target: Gal(b1-4)GlcNAc(b1-3)Gal(b1-4)GlcNAc(b1-3)Gal(b1-4)GlcNAc(b1-3)Gal(b1-4)GlcNAc(b1-2)Man(a1-3)[Gal(b1-4)GlcNAc(b1-3)Gal(b1-4)GlcNAc(b1-3)Gal(b1-4)GlcNAc(b1-3)Gal(b1-4)GlcNAc(b1-2)Man(a1-6)]Man(b1-4)GlcNAc(b1-4)[Fuc(a1-6)]GlcNAc
# Procedure, shortened: as §1
# [10] = biological target: Gal(b1-4)GlcNAc(b1-3)Gal(b1-4)GlcNAc(b1-3)Gal(b1-4)GlcNAc(b1-3)Gal(b1-4)GlcNAc(b1-2)[Gal(b1-4)GlcNAc(b1-3)Gal(b1-4)GlcNAc(b1-3)Gal(b1-4)GlcNAc(b1-3)Gal(b1-4)GlcNAc(b1-6)]Man(a1-6)[Gal(b1-4)GlcNAc(b1-3)Gal(b1-4)GlcNAc(b1-3)Gal(b1-4)GlcNAc(b1-3)Gal(b1-4)GlcNAc(b1-2)Man(a1-3)]Man(b1-4)GlcNAc(b1-4)[Fuc(a1-6)]GlcNAc
# Procedure, shortened: as §1
# [11] = biological target: Gal(b1-4)GlcNAc(b1-3)Gal(b1-4)GlcNAc(b1-3)Gal(b1-4)GlcNAc(b1-3)Gal(b1-4)GlcNAc(b1-3)Gal(b1-4)GlcNAc(b1-2)Man(a1-3)[Gal(b1-4)GlcNAc(b1-3)Gal(b1-4)GlcNAc(b1-3)Gal(b1-4)GlcNAc(b1-3)Gal(b1-4)GlcNAc(b1-3)Gal(b1-4)GlcNAc(b1-2)Man(a1-6)]Man(b1-4)GlcNAc(b1-4)GlcNAc
# Procedure, shortened: as §1
# [12] = biological target: Gal(b1-4)GlcNAc(b1-3)Gal(b1-4)GlcNAc(b1-3)Gal(b1-4)GlcNAc(b1-3)Gal(b1-4)GlcNAc(b1-3)Gal(b1-4)GlcNAc(b1-2)Man(a1-3)[Gal(b1-4)GlcNAc(b1-3)Gal(b1-4)GlcNAc(b1-3)Gal(b1-4)GlcNAc(b1-3)Gal(b1-4)GlcNAc(b1-3)Gal(b1-4)GlcNAc(b1-2)Man(a1-6)]Man(b1-4)GlcNAc(b1-4)[Fuc(a1-6)]GlcNAc
# Procedure, shortened: as §1
# [13] = biological target: Gal(b1-4)GlcNAc(b1-3)Gal(b1-4)GlcNAc(b1-3)Gal(b1-4)GlcNAc(b1-3)Gal(b1-4)GlcNAc(b1-3)Gal(b1-4)GlcNAc(b1-2)[Gal(b1-4)GlcNAc(b1-3)Gal(b1-4)GlcNAc(b1-3)Gal(b1-4)GlcNAc(b1-3)Gal(b1-4)GlcNAc(b1-3)Gal(b1-4)GlcNAc(b1-6)]Man(a1-6)[Gal(b1-4)GlcNAc(b1-3)Gal(b1-4)GlcNAc(b1-3)Gal(b1-4)GlcNAc(b1-3)Gal(b1-4)GlcNAc(b1-3)Gal(b1-4)GlcNAc(b1-2)Man(a1-3)]Man(b1-4)GlcNAc(b1-4)[Fuc(a1-6)]GlcNAc
# Procedure, shortened: as §1
# [14] = biological target: Gal(b1-4)GlcNAc(b1-3)Gal(b1-4)GlcNAc(b1-3)Gal(b1-4)GlcNAc(b1-3)Gal(b1-4)GlcNAc(b1-3)Gal(b1-4)GlcNAc(b1-3)Gal(b1-4)GlcNAc(b1-2)Man(a1-3)[Gal(b1-4)GlcNAc(b1-3)Gal(b1-4)GlcNAc(b1-3)Gal(b1-4)GlcNAc(b1-3)Gal(b1-4)GlcNAc(b1-3)Gal(b1-4)GlcNAc(b1-3)Gal(b1-4)GlcNAc(b1-2)Man(a1-6)]Man(b1-4)GlcNAc(b1-4)GlcNAc
# Procedure, shortened: as §1
# [15] = biological target: Gal(b1-4)GlcNAc(b1-3)Gal(b1-4)GlcNAc(b1-3)GalNAc
# Procedure, shortened: as §1
# [16] = biological target: Gal(b1-4)GlcNAc(b1-3)Gal(b1-4)GlcNAc(b1-3)[Gal(b1-4)GlcNAc(b1-3)Gal(b1-4)GlcNAc(b1-6)]GalNAc
# Procedure, shortened: as §1
# [17] = biological target: Gal(b1-4)GlcNAc(b1-3)Gal(b1-4)GlcNAc(b1-6)[Gal(b1-3)]GalNAc
# Procedure, shortened: as §1
# [18] = biological target: Gal(b1-4)GlcNAc(b1-3)Gal(b1-4)[Fuc(a1-3)]GlcNAc(b1-3)Gal(b1-4)[Fuc(a1-3)]GlcNAc
# Procedure, shortened: as §1
# [19] = biological target: Gal(b1-4)GlcNAc(b1-3)GalNAc
# Procedure, shortened: as §1
# [20] = biological target: Gal(b1-4)GlcNAc(b1-3)[Fuc(a1-3)GlcNAc(b1-6)]Gal(b1-4)Glc
# Procedure, shortened: as §1
# [21] = biological target: Gal(b1-4)GlcNAc(b1-3)[Gal(b1-4)GlcNAc(b1-6)]Gal(b1-4)GlcNAc
# Procedure, shortened: as §1
# [22] = biological target: Gal(b1-4)GlcNAc(b1-3)[GlcNAc(b1-6)]Gal(b1-4)GlcNAc
# Procedure, shortened: as §1
binder,measurement,setting,value
B1,glycan array binding signal (z-score),[1],-0.071
same,glycan array binding signal (z-score),[2],-0.08
same,glycan array binding signal (z-score),[3],-0.065
same,glycan array binding signal (z-score),[4],-0.083
same,glycan array binding signal (z-score),[5],-0.036
same,glycan array binding signal (z-score),[6],-0.074
same,glycan array binding signal (z-score),[7],-0.07
same,glycan array binding signal (z-score),[8],-0.072
same,glycan array binding signal (z-score),[9],-0.081
same,glycan array binding signal (z-score),[10],-0.071
same,glycan array binding signal (z-score),[11],-0.081
same,glycan array binding signal (z-score),[12],-0.079
same,glycan array binding signal (z-score),[13],-0.076
same,glycan array binding signal (z-score),[14],-0.071
same,glycan array binding signal (z-score),[15],-0.04
same,glycan array binding signal (z-score),[16],-0.042
same,glycan array binding signal (z-score),[17],-0.044
same,glycan array binding signal (z-score),[18],-0.077
same,glycan array binding signal (z-score),[19],-0.075
same,glycan array binding signal (z-score),[20],-0.059
same,glycan array binding signal (z-score),[21],-0.079
same,glycan array binding signal (z-score),[22],-0.077
